Assay results published in the RNAGym collection of RNA variant scans (doi:10.7554/elife.90254).
Read counts are not given, so values of variants with three or more changes are uncertain.

B1: OR4K15 (parent)
chain: GUUAACGGUCAUAGGCCAUGGAAACUAGGAGCACCAUUUCGCUGCCAGUGAAGAAAUGAACAAAGAAAAUCUGGGCCAGGCAGGCAUCAAAAGAAAUAGUCUUGCGCUCAACCAGAAAGUCUGUAAUCAUUUUAAGGGUA

Variants of: B1
Assay: self-cleavage, relative activity (ratio to wild type); higher = more cleavage; in vitro, sequencing; the parent is a self-cleaving ribozyme

Variant	self-cleavage
A63G U70C A140G	0.74
U38C A59U U100C U132G	1.65
A18G A51G A94G U130C	1.12
U9A A24G A33G	1.24
A18U U19C U100A U130C	0.23
U49A A60C A98G A110G U127C U130C	0.02
A68G A78U G137U	0.43
A63G A68G C77U U122C	2.27
A47G A62G G136A	1.35
G74U A86G A110G A140G	0.04
A23U U57C U70C	0.96
A27G A55U A110G	0.21
C71A A86G U139C	0.35
U9A A94U U103C A114G	0.19
A62G A66G U87A	1.17
A4G A60G C85U	0.72
A30G A51G A54G U122C U131A	1.71
A66G A95G U103C	1.49
A5G A54G A90G	2.23
A30G A59G A62G A82G A86G	0.1
A23G A51G A91U	1.17
A55G U87C A118G A126G	0.81
U19A A24G A33U A60G A68C	0.2
C81U A95G A114U	0.02

Variant	self-cleavage
U39C A54G A82G A118C	0.18
U9A U49C A56G	0.79
A11G A56G A62G A69U U131C A140G	1.59
A27G A51G A91G A111G U127C A129U	0
A13G U38C A56G A110U	2.06
A11G A23G A67U	1.23
G83U A96U U130A	0.21
A4G A47G A55G A82G A86G A118U	0.43
U38C A89C U120C	0.94
U38A A116C U132G	0.06
U2C A67G A114U A116G U130C	0.01
A5G A23G C32U G48U A98G	0.32
A5G A11G A36C A118G	0.47
G15A A82U A95G U103C	0.06
U2G U19C A24G A59G A68G U127C	0.52
U72A A78U A89G	0.12
A5G A13U A33U A55G A67G A96G	1.23
U39A A86U G137A	2.41
A91G U102C U108A U133A	0
U43C A68G G73A	0.28
A4G A55G G84U	0.71
A11G A23G A89G U122C	1.03
A47C U100C A129G	2.66
U12A A30U G53U C77G A114G	0.1

Variant	self-cleavage
A23G A30U U49C A55G A62U A92G A114U	0
A64G C71A A111G	0.05
A11G A23G A126U U131A	0.56
A60C A95G U132C	2.49
A24G U49C U100A	0.64
A22G A62G U122A	0.57
A22G U38C A125G	0.44
A116G U130C A135U	0.09
A23C A24G A51G A82G A111G	0.04
U19C U49C A89G	0.39
U3C A22U A64U A69U	0.74
A22U A27G A47G A110G	0.27
A52G U100A U102C U108A	0.01
A18U A56G A92U U132C	2.04
U2C A55G A64G A67G U72C A117G	0.07
A59G A60U U122C	1.67
U19C U87C U127C	0.54
C81U U87A A117U	0.12
A24G U120C U130C	0.48
U19C A56G U139C	1.47
U2C A66G U70C A92G	0.67
A36G A51G A118G A129G	0.59
A66G A68G A140G	1.08
U70A A89G A94G	0.65

Variant	self-cleavage
A24G A63G U122C	0.57
A67G C85A A86U A129U	0.46
U12C U102G A116G U122C	0.15
A22G A111G U120C	0.06
G41A A64U U87C	1.76
U43G A68G A90G	1.24
A11G A23G A36G U72C	0.09
A94G A117G A135C	0.7
U37G A51U A52G C71U A125G	0.13
A30U G106A C121U	0.01
A13G A62G U124C	0.99
U2C A62G U108G	0
A5G A68G U72C	0.55
U39G A47G A117U	0.59
G31A A68G A78G A114G	0.03
A18G A56G U87C A118G	0.59
A5U U49C A82G A86G A89C	0.08
A11U U120G G137U	2
A59G A116U U120C	0.12
U26C A68G G74U U103C U122A	0.05
U2C A51U A96G	2.99
A24G A82U A92G A117G	0.18
U2C A23G A135U	0.73
A22U A60G A67C U132C	2.29

Variant	self-cleavage
A59G A67U U100C	1.99
U3C A24G U37C	1.18
U12C A30G U38A A69G A78G	0.49
A82G U87C A140G	0.7
A68G A89G A110G	0.34
A27U A90G G136A	1.54
A13U A24C A52G A54G A68G C112U A126C U130C	0.01
U9A A111G A116G U127C	0.01
A47G C77U U87A	2.34
A33U U57G U103C	0.68
A66U A95G U103C A117U	0.51
A24G U49C A62G A64G	1.27
A24G A68G G80U G106U G136A	0
A22G U43A A54U A111G	0.05
U19C A78C A140G	0.25
A52U A69G A140U	0.97
A5U A13U A54G A110G	0.44
C34A U49C A89G A96U	0.83
U9C U19A A78G A126G	0.12
A24G A51U A98G U102C	1.04
A51G A68C A95G A126U	1.07
A56G U57C A96G U103C A116U	0.03
A5G C16U A91G U130C	0.53
U37C A64G A94G	0.66

Variant	self-cleavage
A56G A89G U133C	0.45
U49A A64U A110G	0.11
U9C A54G A59G A135G	1.02
A63G A69C U120A	2.45
U49C A69G G123A	1.73
A24G A33C A56G	0.44
A22G U38A U132A	0.92
A36C A68C A118G A135G U139A	0.75
U39A U43C U57A U72C	0.2
G7A A22G A86G A90G U130C	0.14
U2A U38C A55G A94G	1.55
U2C A18U U103C U108A	0.04
A27G A30G A36G U103C	0.22
U2C A5G A60C A82U U108G	0
A11G A86C A110G	0.06
U39A A92G A116G	0.95
A22G A52G A118U	0.58
A24G C35U A54G	1.25
G31A A64G U127C	0.46
G8A A116G U122A	0.97
A59G A118G U122A	1.01
A18U C45U A60G	0.48
U102A A110U U130C	0.43
U70C U100C U127C	1.95

Variant	self-cleavage
A18G A62G U103C A111G	0.02
C45U A116G U132C	0.12
A64G U139C A140G	1.55
A60G A129G U131C	0.96
A68G C81U A94G U108A A110G	0.01
A33G U39C U43C A64G C112U	0.02
A55G A60G A66C	1.14
A51G A86G A117G	1.63
A5C A33G A51G A59G A92U	1.28
U49A U57C U70C G93A A94G	0.38
U49C U102C U122C	0.53
A33G G106A U131C	0.01
A67G A91G A92G	1.56
A33G U43A G75A A94G	0.13
A22G G28A A68G A82G U108C	0.03
U49C A66G A91G	1.03
C40U A54G A67G	1.1
U43A A55C U108A A118G	0.01
A60G A62G A110G	0.14
U26C A118U U122C	0.75
A11G A23G U43C A82U A92G U100C A125G	0.14
U12C A66U A86G U133C	1.06
A11G U39A A118U U127A	0.9
